{
  "sequences": {"note": "By UniProt entry, the sequences of proteins in these tests, tags left out. Where a name states a change or a piece, a line headed by the entry shows the natural chain unless it says otherwise. Chains listed by the source or under a name are the forms on record and can include a tag or linker.", "UniProt Q13309": "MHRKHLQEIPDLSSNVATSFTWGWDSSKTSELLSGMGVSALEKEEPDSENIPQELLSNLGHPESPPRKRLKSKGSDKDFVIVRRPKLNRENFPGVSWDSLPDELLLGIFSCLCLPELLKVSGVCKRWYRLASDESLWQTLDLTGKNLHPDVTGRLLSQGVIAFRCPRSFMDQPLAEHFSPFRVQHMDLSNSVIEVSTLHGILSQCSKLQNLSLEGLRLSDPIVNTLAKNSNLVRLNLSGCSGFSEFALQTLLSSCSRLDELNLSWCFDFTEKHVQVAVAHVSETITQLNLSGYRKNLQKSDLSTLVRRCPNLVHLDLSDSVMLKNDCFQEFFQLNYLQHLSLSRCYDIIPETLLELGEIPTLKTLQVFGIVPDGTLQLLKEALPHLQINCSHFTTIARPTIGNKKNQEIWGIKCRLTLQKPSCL", "SKP2-3A (Q13309, form named)": "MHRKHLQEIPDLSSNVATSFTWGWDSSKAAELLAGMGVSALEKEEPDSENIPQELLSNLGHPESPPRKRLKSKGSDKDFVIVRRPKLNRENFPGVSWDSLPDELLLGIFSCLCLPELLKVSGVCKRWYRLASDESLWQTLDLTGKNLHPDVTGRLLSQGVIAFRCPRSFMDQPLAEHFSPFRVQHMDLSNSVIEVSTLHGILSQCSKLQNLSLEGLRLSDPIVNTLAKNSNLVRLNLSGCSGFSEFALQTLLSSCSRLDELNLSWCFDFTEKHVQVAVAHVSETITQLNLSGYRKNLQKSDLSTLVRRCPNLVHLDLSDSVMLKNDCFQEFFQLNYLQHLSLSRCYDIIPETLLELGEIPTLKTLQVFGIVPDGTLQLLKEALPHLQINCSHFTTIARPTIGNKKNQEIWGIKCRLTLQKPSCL", "UniProt Q9Y297": "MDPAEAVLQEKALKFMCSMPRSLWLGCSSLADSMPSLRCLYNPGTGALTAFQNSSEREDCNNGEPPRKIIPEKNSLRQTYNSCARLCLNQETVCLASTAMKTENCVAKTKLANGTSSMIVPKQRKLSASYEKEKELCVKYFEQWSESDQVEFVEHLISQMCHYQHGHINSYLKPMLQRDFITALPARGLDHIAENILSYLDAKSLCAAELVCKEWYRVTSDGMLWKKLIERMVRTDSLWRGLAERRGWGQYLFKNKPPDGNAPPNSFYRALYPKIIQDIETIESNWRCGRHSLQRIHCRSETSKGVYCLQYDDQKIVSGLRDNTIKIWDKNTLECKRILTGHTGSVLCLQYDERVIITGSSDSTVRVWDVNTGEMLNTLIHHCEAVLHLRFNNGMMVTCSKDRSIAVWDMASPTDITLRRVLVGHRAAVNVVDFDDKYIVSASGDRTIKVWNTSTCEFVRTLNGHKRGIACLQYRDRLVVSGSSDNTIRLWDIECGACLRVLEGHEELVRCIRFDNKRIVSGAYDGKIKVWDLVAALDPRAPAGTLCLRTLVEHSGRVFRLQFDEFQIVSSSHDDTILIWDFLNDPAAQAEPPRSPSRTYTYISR"},
  "source": "paper PMC5241824",
  "molecules": {"B1": {"name": "FBXW2, endogenous (protein, UniProt Q9UKT8 1-454)", "chain": "MERKDFETWLDNISVTFLSLTDLQKNETLDHLISLSGAVQLRHLSNNLETLLKRDFLKLLPLELSFYLLKWLDPQTLLTCCLVSKQWNKVISACTEVWQTACKNLGWQIDDSVQDALHWKKVYLKAILRMKQLEDHEAFETSSLIGHSARVYALYYKDGLLCTGSDDLSAKLWDVSTGQCVYGIQTHTCAAVKFDEQKLVTGSFDNTVACWEWSSGARTQHFRGHTGAVFSVDYNDELDILVSGSADFTVKVWALSAGTCLNTLTGHTEWVTKVVLQKCKVKSLLHSPGDYILLSADKYEIKIWPIGREINCKCLKTLSVSEDRSICLQPRLHFDGKYIVCSSALGLYQWDFASYDILRVIKTPEIANLALLGFGDIFALLFDNRYLYIMDLRTESLISRWPLPEYRKSKRGSSFLAGEASWLNGLDGHNDTGLVFATSMPDHSIHLVLWKEHG"}, "B2": {"name": "FBXW2, tagged, co-transfected with SKP2 or SKP2-3A (Fig. 4b) (protein, UniProt Q9UKT8 1-454)", "chain": "B1 chain"}, "B3": {"name": "FBXL3, endogenous (protein, UniProt Q9UKT7 1-428)", "chain": "MKRGGRDSDRNSSEEGTAEKSKKLRTTNEHSQTCDWGNLLQDIILQVFKYLPLLDRAHASQVCRNWNQVFHMPDLWRCFEFELNQPATSYLKATHPELIKQIIKRHSNHLQYVSFKVDSSKESAEAACDILSQLVNCSLKTLGLISTARPSFMDLPKSHFISALTVVFVNSKSLSSLKIDDTPVDDPSLKVLVANNSDTLKLLKMSSCPHVSPAGILCVADQCHGLRELALNYHLLSDELLLALSSEKHVRLEHLRIDVVSENPGQTHFHTIQKSSWDAFIRHSPKVNLVMYFFLYEEEFDPFFRYEIPATHLYFGRSVSKDVLGRVGMTCPRLVELVVCANGLRPLDEELIRIAERCKNLSAIGLGECEVSCSAFVEFVKMCGGRLSQLSIMEEVLIPDQKYSLEQIHWEVSKHLGRVWFPDMMPTW"}, "B4": {"name": "FBXL11, endogenous (protein, UniProt Q9Y2K7 1-1162)", "chain": "MEPEEERIRYSQRLRGTMRRRYEDDGISDDEIEGKRTFDLEEKLHTNKYNANFVTFMEGKDFNVEYIQRGGLRDPLIFKNSDGLGIKMPDPDFTVNDVKMCVGSRRMVDVMDVNTQKGIEMTMAQWTRYYETPEEEREKLYNVISLEFSHTRLENMVQRPSTVDFIDWVDNMWPRHLKESQTESTNAILEMQYPKVQKYCLMSVRGCYTDFHVDFGGTSVWYHIHQGGKVFWLIPPTAHNLELYENWLLSGKQGDIFLGDRVSDCQRIELKQGYTFVIPSGWIHAVYTPTDTLVFGGNFLHSFNIPMQLKIYNIEDRTRVPNKFRYPFYYEMCWYVLERYVYCITNRSHLTKEFQKESLSMDLELNGLESGNGDEEAVDREPRRLSSRRSVLTSPVANGVNLDYDGLGKTCRSLPSLKKTLAGDSSSDCSRGSHNGQVWDPQCAPRKDRQVHLTHFELEGLRCLVDKLESLPLHKKCVPTGIEDEDALIADVKILLEELANSDPKLALTGVPIVQWPKRDKLKFPTRPKVRVPTIPITKPHTMKPAPRLTPVRPAAASPIVSGARRRRVRCRKCKACVQGECGVCHYCRDMKKFGGPGRMKQSCVLRQCLAPRLPHSVTCSLCGEVDQNEETQDFEKKLMECCICNEIVHPGCLQMDGEGLLNEELPNCWECPKCYQEDSSEKAQKRKMEESDEEAVQAKVLRPLRSCDEPLTPPPHSPTSMLQLIHDPVSPRGMVTRSSPGAGPSDHHSASRDERFKRRQLLRLQATERTMVREKENNPSGKKELSEVEKAKIRGSYLTVTLQRPTKELHGTSIVPKLQAITASSANLRHSPRVLVQHCPARTPQRGDEEGLGGEEEEEEEEEEEDDSAEEGGAARLNGRGSWAQDGDESWMQREVWMSVFRYLSRRELCECMRVCKTWYKWCCDKRLWTKIDLSRCKAIVPQALSGIIKRQPVSLDLSWTNISKKQLTWLVNRLPGLKDLLLAGCSWSAVSALSTSSCPLLRTLDLRWAVGIKDPQIRDLLTPPADKPGQDNRSKLRNMTDFRLAGLDITDATLRLIIRHMPLLSRLDLSHCSHLTDQSSNLLTAVGSSTRYSLTELNMAGCNKLTDQTLIYLRRIANVTLIDLRGCKQITRKACEHFISDLSINSLYCLSDEKLIQKIS"}},
  "key": {"[1]": {"biological_target": "T1, FLAG-FBXW2 (FLAG-tagged FBXW2), wild type (human) (UniProt Q9UKT8)", "T1 sequence": "B1 chain", "experiment": "co-IP; co-transfected tagged proteins; pre-cleared lysates with bead-conjugated FLAG antibody overnight at 4 °C; IB (Fig. 2b; Fig. 4b in H1299, HA IB)"}, "[2]": {"biological_target": "T2, FBXW2, ectopically expressed (tag not told) (UniProt Q9UKT8)", "T2 sequence": "B1 chain", "experiment": "co-IP; F-box proteins transfected into 293 cells; immunoprecipitation of the transfected protein, IB for endogenous β-TrCP1 (Supplementary Fig. 1a)"}, "[3]": {"biological_target": "T3, FBXW2, endogenous (human (endogenous in H1299)) (UniProt Q9UKT8)", "T3 sequence": "B1 chain", "experiment": "co-IP; endogenous proteins; H1299 whole cell extracts pre-cleared with normal IgG-AC, overnight at 4 °C with antibody against FBXW2, β-TrCP, FBXL3, FBXL11 or SKP2; IB"}, "[4]": {"biological_target": "T2, FBXW2, ectopically expressed (tag not told)", "experiment": "co-IP; both proteins ectopically overexpressed (Supplementary Fig. 1d); details not shown"}, "[5]": {"biological_target": "T2, FBXW2, ectopically expressed (tag not told)", "experiment": "co-IP; β-TrCP1-FBXW2 binding in cells, control and with GRK2 siRNA silencing (Supplementary Fig. 2e,f); details not shown"}, "[6]": {"biological_target": "SKP2, endogenous (human (endogenous in H1299)) (UniProt Q13309)", "experiment": "co-IP; endogenous proteins; H1299 whole cell extracts pre-cleared with normal IgG-AC, overnight at 4 °C with antibody against FBXW2, β-TrCP, FBXL3, FBXL11 or SKP2; IB"}, "SKP2-3A": {"biological_target": "SKP2-3A (UniProt Q13309)", "experiment": "co-IP; co-transfected tagged proteins; pre-cleared lysates with bead-conjugated FLAG antibody overnight at 4 °C; IB (Fig. 2b; Fig. 4b in H1299, HA IB)"}, "[7]": {"biological_target": "SKP2, wild type, tagged (Fig. 4b) (UniProt Q13309)", "experiment": "co-IP; co-transfected tagged proteins; pre-cleared lysates with bead-conjugated FLAG antibody overnight at 4 °C; IB (Fig. 2b; Fig. 4b in H1299, HA IB)"}, "[8]": {"biological_target": "β-TrCP1 (β-transducin repeat-containing protein 1), endogenous (human (endogenous in 293, H1299, A549)) (UniProt Q9Y297)", "experiment": "co-IP; endogenous proteins; H1299 whole cell extracts pre-cleared with normal IgG-AC, overnight at 4 °C with antibody against FBXW2, β-TrCP, FBXL3, FBXL11 or SKP2; IB"}, "[9]": {"biological_target": "T3, FBXW2, endogenous (human (endogenous in H1299))", "experiment": "co-IP; endogenous proteins; H1299 whole cell extracts pre-cleared with normal IgG-AC, overnight at 4 °C with antibody against FBXW2, β-TrCP, FBXL3, FBXL11 or SKP2; IB", "remark": "listed apart in the source"}},
  "note": "Read-outs that look alike come from different tables or passages of the source. These are yes or no findings as the source states them, for the method shown. In cells and extracts the contact can be indirect. Some binding calls cover weakened binding; strength is not graded here. For some assays here: Tags and fused reporters may be left off the sequences shown.",
  "data": [
    {"molecule": "HA-β-TrCP1 (from UniProt Q9Y297 1-605)", "values": [
      {"measurement": "binding", "setting": "[1]", "result": "binds"}
    ]},
    {"molecule": "β-TrCP1 (β-transducin repeat-containing protein 1), endogenous (from UniProt Q9Y297 1-605)", "values": [
      {"measurement": "binding", "setting": "[2]", "result": "binds"},
      {"measurement": "binding", "setting": "[3]", "result": "binds"}
    ]},
    {"molecule": "β-TrCP1, ectopically expressed (tag not told) (from UniProt Q9Y297 1-605)", "values": [
      {"measurement": "binding", "setting": "[4]", "result": "binds"},
      {"measurement": "binding", "setting": "[5]", "result": "binds"}
    ]},
    {"molecule": "B1", "values": [
      {"measurement": "binding", "setting": "[6]", "result": "binds"}
    ]},
    {"molecule": "B2", "values": [
      {"measurement": "binding", "setting": "SKP2-3A", "result": "no binding"},
      {"measurement": "binding", "setting": "[7]", "result": "binds"}
    ]},
    {"molecule": "B3", "values": [
      {"measurement": "binding", "setting": "[6]", "result": "no binding"},
      {"measurement": "binding", "setting": "[8]", "result": "no binding"},
      {"measurement": "binding", "setting": "[9]", "result": "no binding"}
    ]},
    {"molecule": "B4", "values": [
      {"measurement": "binding", "setting": "[6]", "result": "no binding"},
      {"measurement": "binding", "setting": "[8]", "result": "no binding"},
      {"measurement": "binding", "setting": "[9]", "result": "no binding"}
    ]}
  ]
}
